This is one part of the list. At the low end of the ranking the order means little.

This assay concerns the target T1, GST-Rok-C97-191 (UniProt O34857).
T1 sequence: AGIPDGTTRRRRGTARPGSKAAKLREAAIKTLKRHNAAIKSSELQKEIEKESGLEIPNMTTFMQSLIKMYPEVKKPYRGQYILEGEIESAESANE
Put plainly: protein binding microarray.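 Note: rank score from −0.5 (least bound) to 0.5 (best bound).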 To be noted: Rok is a gene silencer of Bacillus subtilis; high values mean tight binding; most listed sequences are background and not binding sites; double strand, one strand shown.
In the case of ACCTCCCA, the binding signal was -0.101 E-score.
For ACCTCCCT the value was -0.213 E-score; for CGACCTCA, -0.205 E-score.
In turn, AGGGGCGC registered a binding signal of -0.249 E-score.
Under CCAAGATC stands -0.0335 E-score; under CAGAGTTC, -0.1 E-score.
Take ATTTGGCC: the binding signal came to 0.107 E-score.
Under GGGCGTAA stands -0.233 E-score.
Turning to GGAACGCC, the binding signal was -0.232 E-score.
Under TCCTGGCA stands 0.00673 E-score.
Under ACCGGGAA stands -0.0434 E-score; under ACCGCCGG, -0.192 E-score.
Under CCTTCCCA stands -0.317 E-score.
Sequence CAATACCA came in with a binding signal of 0.0679 E-score.
AGAGATCT: the binding signal stood at 0.0463 E-score.
The sequence CGACCCGC had a binding signal of -0.259 E-score.
For TAATAAAA the value was 0.344 E-score; for ATAGCAGC, -0.0351 E-score.
Under CAACGGCA stands -0.159 E-score; under TAATGCCA, -0.0387 E-score.
The sequence CGCCATTC came in with a binding signal of -0.0839 E-score.
For TCCAGAAA the value was 0.0914 E-score; for CCAAACGC, -0.127 E-score.
Under AGACGCCG stands -0.301 E-score.
For GAAATTCC the value was 0.141 E-score.
AGATGAAG had a binding signal of -0.0366 E-score.
For ACGCCAAA, the binding signal was -0.128 E-score.
Under AGGGCAAT stands -0.0534 E-score; under ACTAGGAC, -0.0957 E-score; under AAACTCGA, -0.0345 E-score.
For GCCTGTCC the value was 0.0602 E-score.
Under CCTATGGA stands -0.0967 E-score; under CTGTTGTA, 0.111 E-score; under CTGTAAGA, 0.106 E-score.
CCAAGTAG: the binding signal stood at 0.0496 E-score.
CGGTGTAG yielded a binding signal of -0.0885 E-score.
Under AGCGAATA stands 0.0128 E-score.
For CAATGTAG the value was 0.26 E-score; for CTTCGGGA, -0.0954 E-score; for ACCGACGA, -0.0294 E-score.
As for CACTTAGA, the binding signal is -0.0634 E-score.
For GCGCGCGA the value was 0.139 E-score; for AGAGCGCT, -0.156 E-score; for AGTCCAGA, 0.062 E-score.
For AGCGGCTC the value was -0.0681 E-score.
For CCCGATCG the value was -0.0607 E-score; for CACAACAG, -0.115 E-score.
As for CCTGTCGC, the binding signal was -0.335 E-score.
In turn, GAACTCCA displayed a binding signal of 0.044 E-score.
Under CACACGTA stands 0.0779 E-score.
For CGCGTAGA the value was 0.0474 E-score.
For GGAAGTCC the value was -0.143 E-score.
ATGAGCCG showed a binding signal of -0.128 E-score.
Consider ATCATCAT, for which the binding signal was 0.0703 E-score.
For CACGAAGA, the binding signal is -0.182 E-score.
Regarding TGTAACAA, the binding signal was found to be 0.199 E-score.
Regarding AGTCACTG, the binding signal is -0.0498 E-score.
Turning to GCATGTAA, the binding signal is 0.0226 E-score.
For GTGGTCTA the value was 0.12 E-score; for AGCTCTTG, 0.0373 E-score; for ATCTTCTC, 0.19 E-score.
Under GATGGCAA stands -0.0662 E-score; under CGCCGGGC, -0.295 E-score; under CATACCTA, 0.248 E-score.
Under AAGTGAAA stands 0.0644 E-score; under ACGACGAG, 0.00446 E-score; under AAACCATG, -0.0133 E-score.
In turn, TATCCTCA displayed a binding signal of 0.0877 E-score.
For AAGCGAAA, the binding signal was -0.0979 E-score.
With ACACAAGT, the binding signal came to 0.106 E-score.
With AGTTTTGC, the binding signal is 0.21 E-score.
For ACGTTGAG the value was -0.0141 E-score; for GAAATTAA, 0.278 E-score; for ACCATGAT, 0.145 E-score.
For TAACTCGA, the binding signal was -0.00764 E-score.
Take ATGCTACG: the binding signal came to 0.0354 E-score.
For AAACCCAT the value was -0.101 E-score; for CGTCCAAC, -0.227 E-score; for ACTGCCCG, -0.113 E-score.
ATGTACAA displayed a binding signal of 0.317 E-score.
CTCCTACC came in with a binding signal of -0.0472 E-score.
CCAAGACC had a binding signal of -0.00995 E-score.
For AAATAATG the value was 0.24 E-score.
In turn, AGTCGCAA came in with a binding signal of -0.123 E-score.
For the sequence ATTAGTAC, the binding signal was determined as 0.269 E-score.
ACGACTTA yielded a binding signal of 0.051 E-score.
For ATTGACCA the value was 0.139 E-score; for ATTACCCG, 0.0583 E-score.
Under TACAGTCA stands 0.144 E-score.
GCCTCGAA came in with a binding signal of -0.00639 E-score.
For AGACTCCC the value was -0.161 E-score; for TACAGCGA, 0.0672 E-score; for ACCTCTTG, 0.072 E-score.
CTACAAGC showed a binding signal of 0.0458 E-score.
Under CAGTCTTC stands -0.0268 E-score; under GCAGTCAC, 0.00474 E-score; under ATGGCGTC, -0.242 E-score.
Under ATGTTACG stands 0.0805 E-score.
Under CGGAAGCC stands -0.232 E-score.
Sequence CAGACGGA displayed a binding signal of -0.1 E-score.
For CTGTCCCA the value was -0.0317 E-score; for AAGGGCGG, -0.321 E-score; for CTTGTGGA, -0.119 E-score.
For CGGCGCGA the value was -0.111 E-score.
For CATATAGA the value was 0.144 E-score.
In turn, AGACAACC registered a binding signal of -0.0243 E-score.
Under CGAAAAGC stands 0.143 E-score.
For CGCCGATC the value was -0.291 E-score.
Under AAGCTATT stands 0.147 E-score; under AGCCATTA, -0.0752 E-score.
ACAACGTC came in with a binding signal of -0.0982 E-score.
GAAGTGTC showed a binding signal of -0.143 E-score.
ATTGGATA returned a binding signal of 0.108 E-score.
For ACGAATAG the value was 0.0145 E-score.
The sequence AGACAGAC returned a binding signal of -0.187 E-score.
Under CGACGTCC stands -0.262 E-score.
Under GAATCGGC stands -0.0283 E-score; under AGTAGATC, 0.323 E-score; under CCCATAAC, 0.0404 E-score.
Under ACTGCTTC stands -0.207 E-score.
CCCAAAGG: the binding signal is -0.408 E-score.
On to GGAGCATA, for which the binding signal was 0.019 E-score.
In turn, AGCCGTAC registered a binding signal of 0.169 E-score.
In turn, AGAGGGAG registered a binding signal of -0.165 E-score.
On to ATTAGTTG, for which the binding signal turned out to be 0.118 E-score.
Under AGCACACG stands 0.0455 E-score; under AACGTGTG, 0.0755 E-score.
GTTTGCCA yielded a binding signal of -0.132 E-score.
The sequence ACCCTTTC displayed a binding signal of -0.214 E-score.
As for TCCATCAA, the binding signal was -0.0864 E-score.
For the sequence CTAATCAC, the binding signal was found to be 0.0221 E-score.
In turn, AAATTTGC returned a binding signal of 0.141 E-score.
For AGGCCGAC the value was -0.376 E-score.
Under CTCTTTGA stands -0.00994 E-score; under ATAAGTTA, 0.256 E-score; under AAAACTAT, 0.415 E-score.
Turning to AGTGTTTC, the binding signal stood at 0.0568 E-score.
Under CTGTGGGC stands -0.211 E-score.
For AAAGGCAC the value was -0.116 E-score.
As for ACGGCAGC, the binding signal was -0.322 E-score.
Under AAGCGACA stands -0.136 E-score; under CAGGCGTA, 0.0509 E-score.
Under CTGCATAC stands 0.062 E-score.
For CCTAACCC the value was -0.201 E-score; for GACGGAAC, -0.187 E-score; for CCGACGTA, -0.0042 E-score.
As to AGGTCCTC, the binding signal was -0.0779 E-score.
In turn, GAGGTGGA returned a binding signal of -0.214 E-score.
As for AGGGCACC, the binding signal was -0.246 E-score.
In turn, ATACTTCA displayed a binding signal of 0.0731 E-score.
ATCAAAGC came in with a binding signal of 0.0269 E-score.
In turn, CGCTTAGA showed a binding signal of -0.0215 E-score.
In turn, AAGGCCAA showed a binding signal of -0.251 E-score.
Under ATTGCGTG stands 0.0835 E-score; under AAGGGTCA, -0.251 E-score; under AAGCCCTC, -0.411 E-score.
On to AACCACTA, for which the binding signal was 0.0382 E-score.
Regarding AGAGTCAA, the binding signal was -0.277 E-score.
CTGAGGAA came in with a binding signal of -0.0796 E-score.
For AGATGGAT, the binding signal is -0.0714 E-score.
Under GTGCCTTA stands -0.0896 E-score; under CTCCACGA, -0.113 E-score.
Under GGCTGCCA stands -0.165 E-score; under GCACAGAA, -0.0247 E-score; under GGATTCCA, -0.105 E-score.
For TGCTTACA the value was -0.0436 E-score; for GCAACACC, -0.0846 E-score.
In turn, ACCTACCA displayed a binding signal of 0.31 E-score.
Take CGGGTTTC: the binding signal was -0.143 E-score.
For ACAGGCCC the value was -0.293 E-score.
As to GCGCCGCC, the binding signal was -0.346 E-score.
Consider CAGCAGAC, for which the binding signal is -0.175 E-score.
Take GTCGATAA: the binding signal came to 0.16 E-score.
Turning to GGTGCACA, the binding signal is -0.187 E-score.
Under AGGAACAT stands 0.0671 E-score; under GAAACTGA, 0.0667 E-score; under GCCTCAAC, -0.0981 E-score.
ACGCCACG returned a binding signal of -0.101 E-score.
For GTTGATGA the value was -0.0318 E-score; for CTAGTTTA, 0.378 E-score.
Under AAATGTGT stands 0.244 E-score.
Under ACTCCACG stands -0.154 E-score.
Consider CGGCGAAC, for which the binding signal was -0.0588 E-score.
With ACGGACAA, the binding signal was -0.0239 E-score.
For GCCTGTAC the value was -0.195 E-score.
CAGAACGC returned a binding signal of 0.0176 E-score.
For AAGTACCG the value was 0.113 E-score.
In the case of CGCAACTC, the binding signal is 0.00512 E-score.
For ACCGAACA the value was -0.155 E-score; for CAGTAGTC, -0.151 E-score.
CTCAGATC had a binding signal of 0.00379 E-score.
Under GGTTGCAC stands -0.242 E-score; under GCTGTTAA, 0.063 E-score.
Under AATAAAGC stands 0.132 E-score.
With CTATATCA, the binding signal was found to be 0.185 E-score.
As to CAGTGACG, the binding signal is -0.105 E-score.
As to ACTGACTG, the binding signal is -0.281 E-score.
Under AACATGCC stands -0.112 E-score; under ATCAACAT, 0.00677 E-score; under CACTTGGC, -0.143 E-score.
For ACTCACGA the value was -0.0693 E-score; for CATGTAAC, 0.0988 E-score.
Take AATTCAAA: the binding signal is -0.0564 E-score.
CTTGACTC showed a binding signal of -0.217 E-score.
In turn, GCCTGTCA yielded a binding signal of -0.218 E-score.
CGTCGTCA: the binding signal was -0.193 E-score.
Sequence GACGCCAA returned a binding signal of -0.114 E-score.
The sequence AAAACCCA registered a binding signal of 0.153 E-score.
Under CAACTAAC stands 0.19 E-score.
For AGCTACCC the value was 0.025 E-score.
Under GAATGATC stands -0.126 E-score; under ACATTTCT, 0.204 E-score; under GGTGTAGA, 0.168 E-score.
In the case of ATAGGTCG, the binding signal is 0.0592 E-score.
For AAGTAAAT the value was 0.359 E-score; for ATGATGGC, 0.0131 E-score; for AGCGCCCG, -0.232 E-score.
Under TCCCGAGA stands 0.0637 E-score; under ATAGCATG, 0.213 E-score.
